Test results from ChEMBL document CHEMBL4888484, “Replenishing the malaria drug discovery pipeline: Screening and hit evaluation of the MMV Hit Generation Library 1 (HGL1) against asexual blood stage Plasmodium falciparum ,using a nano luciferase reporter read-out” (2022).
Among all 150,000 compounds or so, about 540 (0.36%) showed an effect of 50% or more. This is one part of the list.

What follows are compounds tested on Plasmodium falciparum (assay: Primary screen in NF54 nanoGlo assay, in single point, at 2uM, 72h; a lower Z score goes with more inhibition). Conditions: timepoint 72 hour.
Format: functional, Erythrocyte

| Compound | % Inhibition [%] | Z score |
| --- | --- | --- |
| C[C@H](O)CNC(=O)C(=O)Nc1cc(Br)ccc1F | -8 | 1.06 |
| COC[C@@H]1[C@H](NC(=O)Cc2ccccc2Cl)[C@H]2CCO[C@H]21 | 14 | -2.51 |
| O=C(c1ncccn1)N1CC[C@H](Oc2cccnn2)C1 | -7 | 0.78 |
| COc1ccc(CNC(=O)N2CCc3[nH]c4c(Br)cccc4c3C2)cc1 | -7 | 0.91 |
| COc1cc(OC)cc(C(=O)N2CCN(c3ccc(NC(=O)c4cc5ccccc5cc4OC)cc3)CC2)c1 | 28 | -3.14 |
| Cc1nnc(Cn2cnc(-c3ccccc3)c2-c2ccc3cccc(O)c3n2)o1 | -8 | 1.48 |
| CCOC(=O)N1CCC(N2CCC(n3nccc3NC(=O)C3CCCC3)CC2)CC1 | -5 | 0.62 |
| Cc1ccc(-c2cn[nH]c2[C@H]2CCCN(C(=O)C(C)(C)O)C2)cc1 | -14 | 2.64 |
| CCOc1ccccc1CNC1CC(OC)(OC)C1 | -3 | 0.3 |
| CC[C@H](NS(=O)(=O)c1cc(C(N)=O)cs1)C1CC(O)C1 (some centres undefined) | -8 | 0.94 |
| CCCC(=O)NC(N1CC(C)OC(C)C1)C(Cl)(Cl)Cl (centres undefined) | -13 | 1.76 |
| O=C(c1cn2cccnc2n1)N1CCc2[nH]nc(-c3cccc(Cl)c3)c2C1 | 21 | -2.87 |
| COc1ccccc1C1(CNC(=O)CN2CCOCC2)CCC1 | 8 | -1.21 |
| CN1C[C@@H](c2nc(-c3cccc(OCC(F)F)n3)no2)NCC1=O | 15 | -1.85 |
| FC(F)(F)c1ccccc1-n1nc(C2CC2)nc1-c1ncn[nH]1 | -3 | 0.66 |
| CC(C)c1nc2c(c(=O)n1CC(=O)N1CCN(c3ccccc3)CC1)CCN(Cc1ccccc1)C2 | 27 | -3.06 |
| Cc1ccoc1C(=O)C(C#N)C(=O)CC1CC2CCC1C2 (centres undefined) | 0 | 0 |
| COc1ccc(OC)c(CCC(=O)N[C@@H](c2ccccc2)c2ccc3nc(C(F)(F)F)[nH]c3c2)c1 | -1 | 0.1 |
| O=C(NC1CCCCC1)N1C[C@H]2CCCc3nnc(-c4ccc(F)cc4)n3[C@H]2C1 | -18 | 1.69 |
| Cc1csc(CNc2nc3ccccc3s2)n1 | -1 | 0.14 |
| CCS(=O)(=O)N1CCC[C@H](C(=O)NC(C)(C)C(=O)OC)C1 | -5 | 0.66 |

| Compound | % Inhibition [%] | Z score |
| --- | --- | --- |
| CCN(Cc1nc2ccccc2c(=O)[nH]1)C(=O)c1cnn(-c2ccccc2)c1 | 31 | -3.96 |
| Cc1c(NC(=O)[C@H]2CCc3nnc(C4CCOCC4)n3CC2)cccc1C(F)(F)F | 36 | -4.79 |
| Cc1cc(-c2ccccc2)nc(NCc2ccccc2Cl)c1S(=O)(=O)c1ccc(Cl)cc1 | 7 | -1.02 |
| C[C@H](NC(=O)c1cccc(-n2nccc2-c2ccccc2)c1)C1CC1 | -4 | 0.62 |
| COc1ccc2nc3n(c2c1)[C@@H](CNCc1ccccn1)COC3 | -5 | 0.81 |
| Cc1nnc(-c2ccccc2C(=O)OCc2cccc3cn[nH]c23)o1 | -3 | 0.29 |
| CN1CC[C@H](C(=O)NCC2(c3cccs3)CCCCC2)CC1=O | 5 | -0.65 |
| NC(=O)c1csc(CNCC2CN(C(=O)c3ccccc3)C3CCN2C3)c1 (centres undefined) | -10 | 1.08 |
| Oc1cc(-c2ccc(Cl)cn2)cc2c1OCCN(c1cnccn1)C2 | -12 | 2.29 |
| CN1CCN(CC(=O)N2CCCCC2)C[C@@]12CCC(=O)N(CC1CC1)CC2 | -8 | 1.24 |
| CC(C)c1noc([C@H](C)NS(=O)(=O)N2CCN(C)CC2)n1 | -1 | 0.16 |
| COC(=O)COC(=O)c1csc(C)n1 | 1 | -0.12 |
| Cc1ccc(NC(=O)N2CCC[C@H]2c2ncc[nH]2)cc1Cl | -4 | 0.67 |
| CC[C@@H](CNC(=O)CCC(=O)c1ccc2c(c1)OCCCO2)c1ccccc1 | -5 | 0.52 |
| CC[C@@H](O)CNC(=O)[C@@H]1CCCN(C(=O)OC(C)(C)C)[C@@H]1C | -6 | 0.83 |
| CC(=O)NCCNCc1cc2cc(C)ccc2nc1OCc1cccc(F)c1 | -3 | 0.51 |
| COc1ccc(-n2nc(C)nc2-c2cnn(C)c2C)cc1 | 11 | -1.48 |
| CCOC(=O)N1CCN(C(=O)C2CCC(Cn3cnnn3)CC2)CC1 (centres undefined) | -4 | 0.68 |
| Cc1cncc(C(=O)NC[C@H](Cc2cnn(C)c2)C(N)=O)c1 | -7 | 0.68 |
| O=C(Cn1cnnc1)NC(c1ccc(F)cc1F)[C@H]1C[C@@H](O)C1 (some centres undefined) | -8 | 1.34 |
| CCOC(=O)[C@H]1CCCN(C(=O)c2nn(-c3ccc(C)c(Cl)c3)c(=O)n(CC)c2=O)C1 | -6 | 0.61 |

| Compound | % Inhibition [%] | Z score |
| --- | --- | --- |
| Cc1ccc(CNC(=O)c2cccc(Oc3cc(-c4cccc(F)c4)ncn3)c2)cc1 | -12 | 1.54 |
| COc1ccc(-c2cc3n(n2)CCCN(C(=O)c2ccc(F)cc2)C3)cc1OC | -10 | 1.09 |
| Cc1cn2c(S(=O)(=O)NCc3ccco3)c(C(C)C)nc2s1 | 38 | -4.81 |
| COc1cccc(CN[C@@H](C)c2ccc(N3CCN(C)CC3)cc2)c1 | 11 | -1.17 |
| C[C@@H](C(=O)NC1CCCC1)S(=O)(=O)Cc1cccc2ccccc12 | -6 | 0.75 |
| CCN1CCOCC1C(=O)OC(C)C(=O)NC(N)=O (centres undefined) | -8 | 0.8 |
| COc1cc(CNc2nccs2)cc(Br)c1OCc1ccc(F)cc1 | -13 | 1.77 |
| CN1CN(C(=O)NCc2cnccc2C(C)(C)C)CC1=O | 3 | -0.35 |
| COc1ccc2c(c1)C(N1CCN(C(=O)NCc3cccc(C)c3)CC1)=Nc1ccccc1O2 | -3 | 0.47 |
| CCC(C)(C)CC(=O)N[C@@H](Cc1ccccc1)c1n[nH]c(=O)[nH]1 | 8 | -0.92 |
| CN1C(=O)[C@H]2CN(C(=O)c3cccc4cc[nH]c34)C[C@H]2C1=O | -11 | 1.26 |
| CN(C)C(=O)NCCNC(=O)C(C)(C)c1ccc(Cl)cc1F | -3 | 0.26 |
| CCN1Cc2nc(OC)c(CN[C@H]3CCCOC3)cc2C1=O | 5 | -0.71 |
| Cc1nnc2sc(Nc3ccccc3)nn12 | 38 | -4.86 |
| COc1c(F)cccc1C(=O)NCC1=CCCCC1 | -4 | 0.51 |
| O=C(OCc1ccc(Cl)cc1)c1ccccc1N1C(=O)c2ccccc2C1=O | -2 | 0.25 |
| CCOc1ccc(-c2ccnc3c(C(=O)NCc4ccc(OC)c(OC)c4)cnn23)cc1 | 34 | -3.9 |
| Cc1nc2ccccc2n1CC1CCN(CC#N)CC1 | -2 | 0.2 |
| COCCCN1CC(=O)N[C@@H]2CN(C(=O)C3CCOCC3)CC[C@@H]2OCc2cccc(c2)Oc2cc(ccc2OC)C1 | 6 | -0.8 |
| CN1C[C@@H]2C[C@H]1C(=O)N[C@@H](Cc1ccccc1)C(=O)NCc1cn(nn1)CCCOc1cc(Cl)ccc1C(=O)N2 | -2 | 0.37 |
| O=S(=O)(c1ccc(-c2ccc(Cl)cc2)cc1)N1CCN(c2ccccc2)CC1 | -5 | 0.69 |

| Compound | % Inhibition [%] | Z score |
| --- | --- | --- |
| COCC(=O)N[C@@H](C)c1cncs1 | -1 | 0.23 |
| Cc1nccn1CCN(C)C(=O)C[C@H]1CCOC1 | -8 | 1.55 |
| OC1=Nc2c(ncn2-c2cc(F)cc(F)c2)[C@@H](c2cccnc2)C1 | 34 | -3.88 |
| Cc1ccc(S(=O)(=O)NCc2ccnc(N(C)C)c2)cc1N(C)C | 4 | -0.77 |
| Nc1ccc(-c2nc3ncccc3o2)cn1 | 1 | -0.1 |
| CCN1CCN(C(=O)c2ccc(-c3nc(C)nc4c3cnn4C)cc2)CC1=O | -8 | 1.41 |
| Cn1nccc1CNc1cc(C(F)(F)F)cc2c1OCC(=O)N2 | -11 | 1.75 |
| COC(=O)[C@@H](c1ccccc1C)N1CCC(n2ccnn2)CC1 | -1 | 0.15 |
| COc1cc2cc(c1)C(=O)NCCCC(=O)N[C@H]1CN(Cc3ccc(OCCO)cc3)CC[C@@H]1OCc1cccc(c1)O2 | 0 | 0.07 |
| CNC(=O)[C@@H]1CCCN1CC(C)=Cc1ccccc1 | -4 | 0.57 |
| COc1ccc(Cn2c(CN)nc3cccnc32)cc1 | 4 | -0.74 |
| CCN1CCN(C(=O)c2ccc3nc(-c4cccc(OC)c4)oc3c2)[C@@H](C)C1=O | -9 | 1.61 |
| Cc1cccc(Nc2nnc(CC(=O)N[C@@H](C)c3ccc(F)cc3)s2)c1 | 8 | -0.88 |
| N#CC1(CNS(=O)(=O)c2cccnc2OCC(F)F)CCCCC1 | -5 | 0.44 |
| Cc1ccc(N2CC[C@@H]3N(Cc4ccoc4)CCC[C@@]3(CO)C2)nn1 | -2 | 0.35 |
| CN1CC2(CCN(c3ccncc3)CC2)C[C@@H](c2ccccc2)C1=O | -6 | 1.16 |
| C1=CCC2CN(c3nccn4cnnc34)CC2C1 (centres undefined) | 0 | 0.03 |
| Cc1cc(C(=O)N2CC[C@@]3(CCCN(C4CCCC4)C3=O)C2)cc(=O)[nH]1 | 5 | -0.88 |
| Cc1ccc([C@H](CCO)NC(=O)Cn2nc(C)cc2N)cc1 | -8 | 1.21 |
